# Reference: paper PMC4336329 (PLoS ONE, 2015)
# The whole screen tested about 310,000 compounds, of which about 2,200 (0.71%) showed an effect of 50% or more. Effects have a minus sign here. The list shows a part of the results.
# Target: human ether-à-go-go-related gene (hERG) potassium channel (human, UniProt Q12809)
# Test: primary screen, population patch clamp on CHO cells stably expressing hERG
# Sequence of human ether-à-go-go-related gene (hERG) potassium channel (Q12809 whole entry, looked up): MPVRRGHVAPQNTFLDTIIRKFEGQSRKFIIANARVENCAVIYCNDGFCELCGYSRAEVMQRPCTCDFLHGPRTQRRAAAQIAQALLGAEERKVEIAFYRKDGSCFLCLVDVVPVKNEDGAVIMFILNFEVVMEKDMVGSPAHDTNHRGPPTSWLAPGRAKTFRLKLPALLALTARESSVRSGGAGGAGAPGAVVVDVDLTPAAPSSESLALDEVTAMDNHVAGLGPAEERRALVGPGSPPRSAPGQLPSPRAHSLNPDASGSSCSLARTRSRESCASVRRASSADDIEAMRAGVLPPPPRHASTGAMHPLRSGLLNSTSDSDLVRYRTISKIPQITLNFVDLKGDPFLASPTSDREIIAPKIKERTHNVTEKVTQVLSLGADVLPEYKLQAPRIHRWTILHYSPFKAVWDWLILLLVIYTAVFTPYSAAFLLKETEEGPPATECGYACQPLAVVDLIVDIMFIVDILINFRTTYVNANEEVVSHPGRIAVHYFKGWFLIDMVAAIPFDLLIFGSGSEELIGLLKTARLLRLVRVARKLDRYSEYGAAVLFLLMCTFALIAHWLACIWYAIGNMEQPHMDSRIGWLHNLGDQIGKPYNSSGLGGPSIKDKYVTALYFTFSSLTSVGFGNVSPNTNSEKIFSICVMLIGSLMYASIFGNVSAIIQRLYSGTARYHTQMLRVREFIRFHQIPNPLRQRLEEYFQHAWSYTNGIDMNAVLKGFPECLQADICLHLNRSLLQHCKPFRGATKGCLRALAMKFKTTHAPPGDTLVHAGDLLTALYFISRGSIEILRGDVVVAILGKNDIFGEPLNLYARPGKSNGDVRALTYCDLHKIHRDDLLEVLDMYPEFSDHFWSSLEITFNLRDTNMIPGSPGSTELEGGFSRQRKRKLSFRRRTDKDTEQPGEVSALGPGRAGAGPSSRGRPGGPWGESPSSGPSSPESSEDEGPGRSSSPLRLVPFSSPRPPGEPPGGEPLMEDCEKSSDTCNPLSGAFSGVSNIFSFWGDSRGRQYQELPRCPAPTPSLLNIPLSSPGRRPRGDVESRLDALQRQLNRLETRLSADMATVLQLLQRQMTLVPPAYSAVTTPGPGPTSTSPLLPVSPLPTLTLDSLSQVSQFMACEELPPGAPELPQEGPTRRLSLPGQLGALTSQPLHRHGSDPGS
row,Compound,"hERG current change (%, negative = inhibition) at 1uM [%]"
1,Cc1ccc(C)c(NC(=O)c2ccc3c(c2)N(Cc2ccc(F)cc2)C(=O)CS3=O)c1 (centres unmarked),4.87
2,S=c1[nH]c(-c2ccccc2)cn1/N=C/c1cccs1,11.4
3,CC(=O)c1cc(C)ccc1OC(=O)CCN1C(=O)C2C3c4ccccc4C(c4ccccc43)C2C1=O (centres unmarked),-10.9
4,Cc1cccc(NC(=O)C2CCCN2C(=O)Oc2ccccc2)c1C (centres unmarked),1.21
5,C/C=C(/C)C(=O)Nc1cccc(C2=NOC3(C2)C[C@@H](C(N)=O)N(C(=O)CC)C3)c1 (some centres unmarked),7.9
6,CC(C)c1cc(C(=O)N/N=C/c2ccoc2)c(O)c(C(C)C)c1,10.4
7,COc1cc(C2NC(=O)NC(c3ccccc3)=C2C(C)=O)c(Br)c(Br)c1O (centres unmarked),16.8
8,CCc1ccc2nc(NC(=O)C3CSC4(C)CCC(=O)N34)sc2c1 (centres unmarked),-10.5
9,O=C(c1ccco1)N1CCCC(c2nc(-c3ccc(S(=O)(=O)NCc4ccccc4)cc3)no2)C1 (centres unmarked),2
10,COc1ccc(S(=O)(=O)/N=C2\C=C(Nc3ccc(O)cc3)C(=O)c3ccccc32)cc1,2.25
11,CN(C)CCNC(=O)C(=O)NCC1OCCN1S(=O)(=O)c1cc(F)ccc1F (centres unmarked),10.9
12,C[C@H](NC(=O)c1ccc2c(c1)OCO2)c1nnc2ccccn12,7.68
13,COCCCN1C(=O)c2ccc(C(=O)OCC(=O)NCCc3ccccc3)cc2C1=O,10.1
14,Cc1cccc(C)c1OCc1cc(C(=O)N2CCN(c3ccc(F)cc3)CC2)no1,10.9
15,O=C(Cc1c(F)cccc1Cl)Nc1ccccc1C(=O)N1CCOCC1,7.79
16,CSCCC(NC(N)=O)C(=O)NCc1ccc(Cl)cc1 (centres unmarked),8.54
17,Cn1c(C(=O)N2CCC(C(=O)N3CCOCC3)CC2)cc2sccc21,9.54
18,CCCNC(=O)c1n[nH]c2c1CC(C(C)(C)CC)CC2 (centres unmarked),14
19,Cc1noc(C)c1CSCC(=O)Nc1nc2ccc(S(C)(=O)=O)cc2s1,22.5

row,Compound,"hERG current change (%, negative = inhibition) at 1uM [%]"
1,Cc1ccc(NC(=O)CSc2nnc(Cc3ccccc3)c(=O)[nH]2)c(C)c1,-6.8
2,Cc1ccc(CNC(=O)C2CCN(c3nc(C)cc(C)n3)CC2)cc1,8.85
3,CC(=O)c1cc2c(cc1NC(=O)C1CCC1)OCO2,17.3
4,Clc1ccc(OCC#CCN2CCCC2)cc1.O=C(O)C(=O)O,6.95
5,COc1ccc(Nc2nc(NCc3ccco3)nc(N3CCOCC3)n2)cc1,10.4
6,Cc1ccccc1NC(=O)C1CCN(S(=O)(=O)c2cccs2)CC1,5.22
7,O=C(O)c1cnc2ccccc2n1,16.3
8,COc1ccc(CNc2nc(-c3ccccc3)nn2C(=O)c2ccc([N+](=O)[O-])cc2)cc1,11.3
9,CCn1c(=O)cc(SCC(=O)Nc2ccc3c(c2)OCO3)c2ccccc21,-12.6
10,CCCNc1c(NS(=O)(=O)c2ccc(NC(=O)CC)cc2)c(=O)oc2ccccc12,-10.6
11,CCCCOc1ccc(/C=C/C(=O)Nc2ccc([N+](=O)[O-])cc2C)cc1,10.9
12,CCc1cc2c(NCC(=O)O)ncnc2s1,5.29
13,Cc1cc(C)n(-c2ccc(C(=O)N3CC(C)OC(C)C3)cc2)n1 (centres unmarked),8.76
14,O=C(NC1CCCCC1)c1ccc(Cn2cc(Cl)cn2)cc1,-0.404
15,CC(=O)NC(CC(C)C)C(=O)NC(=O)NCc1ccccc1 (centres unmarked),-2.43
16,CCN(CC(=O)Nc1c(F)cccc1F)C(=O)CCN1C(=O)C2CCCCC2C1=O (centres unmarked),13.2
17,Cc1nc(-c2ccc(S(=O)(=O)Nc3cc(S(=O)(=O)N(C)C)ccc3C)s2)cs1,9.27
18,O=C(O)c1ccc(Nc2ccc3nonc3c2[N+](=O)[O-])cc1,11.3
19,CCc1ccccc1NC(=O)CN(C)C(=O)c1cc(C2CC2)nc2c1cnn2C(C)C,8.14

row,Compound,"hERG current change (%, negative = inhibition) at 1uM [%]"
1,Cc1ccsc1C(=O)N(CC(C)C)c1c(N)n(Cc2ccccc2)c(=O)[nH]c1=O,16.4
2,CCOC(=O)CN1C(=O)N(CC)C(C)=C(C(=O)OC)[C@@H]1c1ccccc1,8.3
3,O=c1cc(NCCc2ccccc2)c2ccccc2o1,9.47
4,O=C(O)c1cn(-c2ccccc2)nc1-c1ccc(F)cc1,12.3
5,O=C(NCc1ccc2c(c1)OCO2)C1CCN(c2ncccn2)CC1,3.06
6,O=C(NC1CCCCC1)N1CCN(c2nc(-c3ccccc3)cs2)CC1,14.3
7,CCN1CCN(C(=S)Nc2ccc(C(C)=O)cc2)CC1,18.5
8,COCCNC(=O)CN1N=C(c2ccc(C)cc2)CCC1=O,-3.37
9,Br.CC(C)(C)C(=O)Cn1c(=N)n(Cc2ccccc2)c2ccccc21,-17
10,CNC(=O)CN(c1cc(OCCOC)c(Cl)cc1Cl)S(=O)(=O)c1ccccc1,3.37
11,COC(=O)c1ccc(CN2C(=O)NC(c3ccccc3)(c3ccccc3)C2=O)o1,8.23
12,N#CCn1c2ccccc2c2nc3ccccc3nc21,4.98
13,CCCS(=O)(=O)N1CCN(C(=O)COc2ccccc2)CC1,-5.82
14,Cc1cc(NS(=O)(=O)c2ccc(NC(=S)NC(=O)c3ccc(F)cc3Cl)cc2)no1,12.8
15,CCCCCCOc1ccc(/C(C)=N/NC2=NCCN2)cc1,11.7
16,CCCN(CCC)Cc1c(C(=O)N/N=C/c2ccsc2)nnn1-c1nonc1N,-7.79
17,CC1(C(=O)N2CCN(c3ccccc3)CC2)CC1(Cl)Cl (centres unmarked),10.3
18,O=Cc1cccn1-c1ncc(Br)cn1,-6.11
